Consider 153 variants from a collection of fitness landscapes (doi:10.1126/science.1257360).

First the molecules themselves.
B1: PhoQ; a variant is named by its letters at X, in order, P23837 (parent)
chain: MKKLLRLFFPLSLRVRFLLATAAVVLVLSLAYGMVALIGYSVSFDKTTFRLLRGESNLFYTLAKWENNKLHVELPENIDKQSPTMTLIYDENGQLLWAQRDVPWLMKMIQPDWLKSNGFHEIEADVNDTSLLLSGDHSIQQQLQEVREDDDDAEMTHSVAVNVYPATSRMPKLTIVVVDTIPVELKSSYMVWSWFIYVLSANLLLVIPLLWVAAWWSLRPIEALAKEVRELEEHNRELLNPATTRELTSLVRNLNRLLKSERERYDKYRTTLTDLTHSLKTPLXXLQXXLRSLRSEKMSVSDAEPVMLEQISRISQQIGYYLHRASMRGGTLLSRELHPVAPLLDNLTSALNKVYQRKGVNISLDISPEISFVGEQNDFVEVMGNVLDNACKYCLEFVEISARQTDEHLYIVVEDDGPGIPLSKREVIFDRGQRVDTLRPGQGVGLAVAREITEQYEGKIVAGESMLGGARMEVIFGRQHSAPKDE

Some of the results follow.

In this experiment the parent is B1. In words: enrichment ratio after two sorts for PhoP signalling (ratio (wild type AVST 3.29)); higher = more functional. Particulars: with PhoP (E. coli).
For MDWC, the enrichment ratio was no more than 0.25.

In the case of SFRF, the enrichment ratio is no more than 0.25.

For IQWT, the enrichment ratio is no more than 0.25.

For the variant AGTE, the enrichment ratio was no more than 0.25.

GPQV: the enrichment ratio is no more than 0.25.

QNIR: the enrichment ratio was no more than 0.25.

Take LFTN: the enrichment ratio is no more than 0.25.

On to RSNC, for which the enrichment ratio was no more than 0.25.

For QGPT, the enrichment ratio is no more than 0.25.

GHID: the enrichment ratio was no more than 0.25.

For FHSP, the enrichment ratio is no more than 0.25.

With DAAM, the enrichment ratio was no more than 0.25.

In the case of RRQC, the enrichment ratio was no more than 0.25.

Take MKYY: the enrichment ratio is no more than 0.25.

For the variant ETRH, the enrichment ratio was no more than 0.25.

With ANMY, the enrichment ratio is no more than 0.25.

As for HFWQ, the enrichment ratio is no more than 0.25.

As to DDIC, the enrichment ratio was no more than 0.25.

Consider DHEA, for which the enrichment ratio was no more than 0.25.

As for DTHS, the enrichment ratio was no more than 0.25.

With NVMP, the enrichment ratio is no more than 0.25.

As to DVGT, the enrichment ratio is no more than 0.25.

RAPS: the enrichment ratio was no more than 0.25.

As to WKTM, the enrichment ratio is no more than 0.25.

In the case of RDQP, the enrichment ratio was no more than 0.25.

As for LKVS, the enrichment ratio was no more than 0.25.

For the variant WQKW, the enrichment ratio is no more than 0.25.

Consider FYTR, for which the enrichment ratio is no more than 0.25.

In the case of FFYQ, the enrichment ratio is no more than 0.25.

For the variant VLTP, the enrichment ratio was no more than 0.25.

Take PDAE: the enrichment ratio is no more than 0.25.

On to ESDR, for which the enrichment ratio was no more than 0.25.

For VDMD, the enrichment ratio is no more than 0.25.

For the variant FYKK, the enrichment ratio was no more than 0.25.

LAWI: the enrichment ratio was no more than 0.25.

Consider YDPP, for which the enrichment ratio is no more than 0.25.

As for YWER, the enrichment ratio is no more than 0.25.

As to RRPI, the enrichment ratio was no more than 0.25.

On to PGAS, for which the enrichment ratio is no more than 0.25.

Take GPND: the enrichment ratio is no more than 0.25.

Turning to EEAH, the enrichment ratio was no more than 0.25.

For VQNE, the enrichment ratio was no more than 0.25.

For KCTG, the enrichment ratio was no more than 0.25.

Regarding QYSK, the enrichment ratio is no more than 0.25.

For VWEN, the enrichment ratio was no more than 0.25.

With NTYH, the enrichment ratio was no more than 0.25.

As for NKKR, the enrichment ratio is no more than 0.25.

On to NFPM, for which the enrichment ratio is no more than 0.25.

As for TDEW, the enrichment ratio was no more than 0.25.

For the variant YCMC, the enrichment ratio is no more than 0.25.

As for QFTG, the enrichment ratio stood at 0.485.

Take PDVH: the enrichment ratio was no more than 0.25.

In the case of FMKQ, the enrichment ratio is no more than 0.25.

Take YYFP: the enrichment ratio was no more than 0.25.

In the case of RTHD, the enrichment ratio was no more than 0.25.

As for FLLI, the enrichment ratio was determined as 0.778.

On to GWEY, for which the enrichment ratio is no more than 0.25.

As to LGGA, the enrichment ratio is no more than 0.25.

As for FIPS, the enrichment ratio was no more than 0.25.

As for PLPA, the enrichment ratio came out at 1.07.

Regarding MKFW, the enrichment ratio is no more than 0.25.

For the variant NLEQ, the enrichment ratio was no more than 0.25.

KKVN: the enrichment ratio is no more than 0.25.

On to LPFI, for which the enrichment ratio is no more than 0.25.

Consider RCWG, for which the enrichment ratio is no more than 0.25.

In the case of TYTD, the enrichment ratio was no more than 0.25.

Turning to LSTD, the enrichment ratio is no more than 0.25.

With YNDI, the enrichment ratio was no more than 0.25.

Take SPTK: the enrichment ratio is no more than 0.25.

On to HWFA, for which the enrichment ratio is no more than 0.25.

As to GQLT, the enrichment ratio came out at 3.79.

Turning to QGNS, the enrichment ratio is no more than 0.25.

For PAMQ, the enrichment ratio was no more than 0.25.

Regarding GIFE, the enrichment ratio is no more than 0.25.

Take SMWF: the enrichment ratio was no more than 0.25.

With EFNK, the enrichment ratio is no more than 0.25.

Turning to NWGR, the enrichment ratio is no more than 0.25.

Regarding VKLY, the enrichment ratio was no more than 0.25.

As to GLFR, the enrichment ratio was no more than 0.25.

As for YMSL, the enrichment ratio was no more than 0.25.

Take WAAM: the enrichment ratio is no more than 0.25.

For EHWQ, the enrichment ratio was no more than 0.25.

Turning to YTDV, the enrichment ratio was no more than 0.25.

On to RTRV, for which the enrichment ratio is no more than 0.25.

On to ELDS, for which the enrichment ratio is no more than 0.25.

Regarding AISK, the enrichment ratio turned out to be 6.13.

With PTDY, the enrichment ratio was no more than 0.25.

As for TQWF, the enrichment ratio came out at 7.56.

As for KRCA, the enrichment ratio was no more than 0.25.

On to KIKG, for which the enrichment ratio was no more than 0.25.

On to AMSN, for which the enrichment ratio came out at 9.34.

With YCWP, the enrichment ratio is no more than 0.25.

Regarding AHDG, the enrichment ratio was no more than 0.25.

As for HQIY, the enrichment ratio was no more than 0.25.

Turning to VSDH, the enrichment ratio was no more than 0.25.

On to ERIL, for which the enrichment ratio is no more than 0.25.

Regarding MLYN, the enrichment ratio was determined as 1.73.

In the case of FPEP, the enrichment ratio was no more than 0.25.

Turning to TQVG, the enrichment ratio was found to be 12.2.

QNTK: the enrichment ratio is no more than 0.25.

Take NMNH: the enrichment ratio is no more than 0.25.

With AELT, the enrichment ratio worked out at 6.58.

For the variant SAHQ, the enrichment ratio is no more than 0.25.

On to MEPY, for which the enrichment ratio was no more than 0.25.

Take GPDE: the enrichment ratio is no more than 0.25.

On to NAMS, for which the enrichment ratio is no more than 0.25.

On to TNCD, for which the enrichment ratio is no more than 0.25.

With GCCF, the enrichment ratio is 4.28.

With NETC, the enrichment ratio was no more than 0.25.

As to YKQH, the enrichment ratio is no more than 0.25.

As for PYAC, the enrichment ratio is no more than 0.25.

As to QHEC, the enrichment ratio was no more than 0.25.

As to LRNR, the enrichment ratio was no more than 0.25.

Turning to LHPK, the enrichment ratio was no more than 0.25.

Consider GYIM, for which the enrichment ratio amounted to 0.349.

Take FCKD: the enrichment ratio is no more than 0.25.

As to WMQG, the enrichment ratio is no more than 0.25.

In the case of TQTF, the enrichment ratio was 0.372.

Consider MPWS, for which the enrichment ratio is no more than 0.25.

VPGD: the enrichment ratio was no more than 0.25.

VKFC: the enrichment ratio is no more than 0.25.

In the case of PCFA, the enrichment ratio was no more than 0.25.

In the case of MFDD, the enrichment ratio was no more than 0.25.

In the case of RMLV, the enrichment ratio was no more than 0.25.

For ATKH, the enrichment ratio is no more than 0.25.

With EHFI, the enrichment ratio was no more than 0.25.

For HKTE, the enrichment ratio was no more than 0.25.

Consider IHDP, for which the enrichment ratio is no more than 0.25.

For the variant DHIW, the enrichment ratio was no more than 0.25.

Consider DPMN, for which the enrichment ratio was no more than 0.25.

Regarding FGPA, the enrichment ratio was no more than 0.25.

For the variant ASSC, the enrichment ratio was determined as 5.91.

With VFSG, the enrichment ratio is no more than 0.25.

As for RRMN, the enrichment ratio was no more than 0.25.

In the case of KDVI, the enrichment ratio is no more than 0.25.

On to DVKN, for which the enrichment ratio is no more than 0.25.

On to KSDK, for which the enrichment ratio was no more than 0.25.

Turning to VQWT, the enrichment ratio is no more than 0.25.

Turning to VIYF, the enrichment ratio was no more than 0.25.

Regarding KQQT, the enrichment ratio is no more than 0.25.

As for KFTL, the enrichment ratio is no more than 0.25.

On to PMKP, for which the enrichment ratio is no more than 0.25.

APCI: the enrichment ratio was no more than 0.25.

DVNK: the enrichment ratio was no more than 0.25.

NSMN: the enrichment ratio is no more than 0.25.

For the variant YSQG, the enrichment ratio is no more than 0.25.

With DDLS, the enrichment ratio was no more than 0.25.

As for GECI, the enrichment ratio is 7.86.

As to EVGM, the enrichment ratio is no more than 0.25.

As for TSKC, the enrichment ratio is no more than 0.25.

For the variant TKIN, the enrichment ratio was no more than 0.25.

For the variant YVMI, the enrichment ratio was no more than 0.25.

With VLNQ, the enrichment ratio is no more than 0.25.
